Experimental data from the supplement of paper PMC10126150.
Values marked as one replicate rest on one cluster of the flow cell; about a third of the high ones do not repeat.

Each sequence was assayed on ATP (assay: switch fluorescence ratio, 500 uM ATP over buffer (Cy3 cluster intensity, sum of 5 cycles each) (fold (ratio)); higher = stronger signal-on switching upon ATP binding; sequences stand for … in TCGTCGGCAGCGTCAGATGTGTATAAGAGACAGTTTTTTTTTTTTTTTTTTTTTTTTT…TC). Conditions: aptamer strand: ATP DNA aptamer (quencher-CACCTGGGGGAGTATTGCGGAGGAAGG + anchor), 100 nM annealed; ATP concentration: 500 uM; one replicate.
Method in brief: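 For every switch-domain sequence, the fluorescence ratio is the mean of per-cluster values, each being summed target-cycle Cy3 intensity over summed buffer-cycle Cy3 intensity. Clusters outside 100-1000 RFU were excluded. On a modified Illumina MiSeq flow-cell, the Cy3-labelled switching-strand clusters were annealed to 100 nM quencher-labelled ATP aptamer, imaged in selection buffer and then after 15 min with 500 uM ATP at 22 °C. Five such cycles were run, with NaOH stripping and re-annealing between them.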
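Also: ATP exposure 15 min at 22 °C before imaging.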

Sequence | switch fluorescence ratio
TATTTGCCGC | 1.01
TATTTGGCCT | 1.07
TATTTGGGAA | 1.02
TATTTGGGCT | 0.993
TATTTTCCCG | 1.23
TATTTTCTAT | 0.986
TATTTTGAT | 0.991
TATTTTGCTG | 0.984
TATTTTTG | 1.05
TCAAAGAGTG | 0.917
TCAAAGGGTA | 1.01
TCAACAGCGT | 1.03
TCAACAGTAT | 1.04
TCAACATGGG | 0.971
TCAACCCTGG | 1.06
TCAACGGCGG | 0.98
TCAACGGCTT | 1.01
TCAACTGCAT | 1.15
TCAACTTAGG | 1.02
TCAACTTGAC | 1.12
TCAACTTTGA | 1.02
TCAAGATTCG | 0.939
TCAAGCGAGA | 0.984
TCAAGCTTAG | 0.984
TCAAGGGAGG | 0.992
TCAAGGGCG | 1.08

Sequence | switch fluorescence ratio
TCAAGGTGCA | 1
TCAAGGTGGC | 0.974
TCAAGGTGGT | 1.03
TCAAGTACCG | 1.13
TCAAGTTTA | 1.01
TCAATATCTT | 0.938
TCAATATTAC | 1.13
TCAATCGTTC | 0.984
TCAATCTGAA | 0.948
TCAATCTGAT | 0.959
TCAATCTTGA | 0.974
TCAATGCCCA | 1
TCAATGGAA | 1.04
TCAATGTCGA | 0.982
TCAATTAAAA | 1
TCAATTGAAT | 0.998
TCACAAGTGA | 0.997
TCACACGCTT | 1.1
TCACACTGTA | 1.2
TCACAGTACG | 1.41
TCACCGCTTC | 4.48
TCACCTATC | 1.05
TCACGAAGCT | 1.03
TCACGACGAA | 1.07
TCACGAGGTG | 1.17
TCACGATTGC | 1.01

Sequence | switch fluorescence ratio
TCACGGTCGC | 0.955
TCACTCCGGA | 1.67
TCACTCGGCA | 1.65
TCACTGGGGC | 0.97
TCACTTGGGG | 1.03
TCACTTGTCC | 1.04
TCAGAAATAA | 0.979
TCAGACCCAA | 1.09
TCAGACGGT | 1.07
TCAGACTGCC | 1.15
TCAGAGACTG | 1.03
TCAGAGCCAA | 1.2
TCAGAGCTAA | 3.3
TCAGATGGAT | 1.04
TCAGCAGCTG | 1.01
TCAGCAGGTG | 6.02
TCAGCCGTCA | 0.95
TCAGCTAGAT | 1.07
TCAGCTGGGT | 1.03
TCAGGAGGGT | 0.971
TCAGGAGTAG | 1.04
TCAGGATCGG | 0.951
TCAGGGCACC | 1.02
TCAGGGTAAA | 1.01
TCAGGGTCCA | 0.97
TCAGGTGTA | 1.64

Sequence | switch fluorescence ratio
TCAGTATCCA | 0.926
TCAGTCGGAG | 1.04
TCAGTCGTGT | 0.98
TCAGTGATGG | 1
TCAGTGGTAG | 1
TCAGTGTTGC | 0.988
TCAGTGTTTG | 0.997
TCAGTTGGTC | 1.04
TCATAAACGA | 1.01
TCATAACCAT | 0.97
TCATAATCC | 0.995
TCATAGAATA | 0.996
TCATAGCATT | 1.01
TCATAGTATA | 0.98
TCATATGACC | 1.01
TCATATGGAA | 1.06
TCATATTGTT | 1.02
TCATCCAGAT | 1.01
TCATCCATGC | 1.28
TCATCTATTC | 1.04
TCATCTCTCA | 0.982
TCATCTTTGA | 1.02
TCATGATCGC | 1.01
TCATGATCGG | 0.958
TCATGCAAAC | 2.93
TCATGCAACT | 1.04

Sequence | switch fluorescence ratio
TCATGCTGTG | 1.02
TCATGGGTT | 1.03
TCATGGTCTT | 1.02
TCATGTCCTA | 0.944
TCATGTGCCC | 0.988
TCATGTGGGG | 0.997
TCATGTGTAC | 1.02
TCATGTGTCT | 0.993
TCATTAAAAT | 1.04
TCATTAACAA | 0.995
TCATTAATCG | 0.999
TCATTAGACG | 1.05
TCATTAGCGT | 0.974
TCATTAGTTC | 0.992
TCATTGAAA | 1.02
TCATTGATTC | 0.997
TCATTGGTGG | 1.02
TCATTGTCTA | 1.02
TCATTTTTAA | 1.03
TCCAAATAA | 0.999
TCCAACATGC | 1.28
TCCAACTCAG | 1.05
TCCAAGACAT | 1.04
TCCAAGTAAG | 1.05
TCCAAGTCGC | 1.07
TCCAATCGGA | 1

Sequence | switch fluorescence ratio
TCCACCTGTA | 1.15
TCCACTACCC | 1.25
TCCACTATAT | 1.15
TCCAGAATCA | 0.974
TCCAGAATCG | 0.965
TCCAGAATG | 1.01
TCCAGAGGCC | 1.08
TCCAGCCAAT | 1.67
TCCAGCGTCC | 1.14
TCCAGCTCAT | 1.05
TCCAGGGAGC | 1.04
TCCAGGTTTG | 2.33
TCCAGTA | 0.982
TCCAGTAGGC | 1.09
TCCATACTCT | 1.09
TCCATAGGGT | 0.963
TCCATCGCCA | 1.97
TCCATCTTAG | 1.02
TCCATTATAT | 1.04
TCCATTATTC | 1.01
TCCCAGACTC | 1.38
TCCCAGGGGA | 3.11
TCCCATGGTT | 1.05
TCCCCACTT | 1.01
TCCCCCAAGG | 1.27
TCCCCGGCGG | 1.11

Sequence | switch fluorescence ratio
TCCCCGGGAG | 1.07
TCCCCTGTG | 2.74
TCCCCTTCT | 1.04
TCCCGAAGGG | 1.01
TCCCGCTCAG | 1.23
TCCCGGCAAA | 3
TCCCGGGACC | 1.02
TCCCGGGGGC | 1.06
TCCCGTCCT | 1.01
TCCCGTGGCG | 1.02
TCCCGTGGGC | 1.11
TCCCGTGGTG | 3.04
TCCCGTTCTT | 0.996
TCCCTACTTA | 1.01
TCCCTATTGC | 1.03
TCCCTGATTT | 1.05
TCCCTGGTAC | 1.7
TCCCTTACTC | 1.21
TCCCTTATT | 1.07
TCCCTTCCAT | 1.02
TCCCTTCTGT | 1.04
TCCCTTTATT | 1.26
TCCGAATCGG | 0.982
TCCGATGCGG | 2.11
TCCGATTGT | 1.68
TCCGCCAAA | 1.37

Sequence | switch fluorescence ratio
TCCGCCCCTA | 1.65
TCCGCGACAT | 5.08
TCCGCTCGTC | 2.06
TCCGCTTAGG | 1.2
TCCGGATCGC | 1.32
TCCGGCTCTT | 1.12
TCCGGGATT | 1.06
TCCGGGCTCA | 1.16
TCCGGGGGAA | 1.08
TCCGGTGCGA | 4.92
TCCGGTGCGT | 1.25
TCCGTAGTCC | 2.54
TCCGTATGGT | 1.01
TCCGTTGGAC | 2.78
TCCTAAGGGT | 1.02
TCCTAATCTT | 1.03
TCCTAATTAC | 1.43
TCCTACAGTT | 1.02
TCCTACGGTG | 1.82
